Experimental data published in the supplement of paper PMC11060735.
Several values for one entry are separate records, joined by “and”; a condition that tells them apart may be missing. Identical values can stand only once. Counter-ions that a name gives are not always drawn. Out of some 1,800 compounds screened, about 50 (3%) showed activity. The list shows a part of the results.
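Note: fibroblasts sorted 14 days after bleomycin, GFP+ and GFP− mixed 1:1 in 384-well plates (GFP− as in-well control), imaged after Hoechst and NucView530 staining, reference wells lacked compound.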

What follows are molecules tested on mouse p16Ink4a+/- lung fibroblasts (INKBRITE, bleomycin-injured) (assay: percentage of GFP+ (p16Ink4a+) fibroblasts among all cells in well; higher = less depletion of p16Ink4a+ cells, active = 20 or less). Conditions: 1 µM; 3 days.
`COc1cc2c(cc1-c1c(C)noc1C)ncc1nc(O)n([C@H](C)c3ccccn3)c12` was tested, and the “percentage of GFP+” value was inactive: 27.3%. In the case of `O=C(c1cn(Cc2cncn2Cc2ccc(Br)cc2)cc1-c1cccc2ccccc12)N1CCOCC1`, the “percentage of GFP+” value is reported as inactive: 38.4%. `COc1ccccc1OCC(O)COC(N)=O` (stereo not drawn) [Methocarbamol] was tested, and the “percentage of GFP+” value was inactive: 43.9%. With `COc1cccc2c1[O][Mn]13([Cl])<-[N](=C2)CC[N]->1=Cc1cccc(OC)c1[O]3` the “percentage of GFP+” value was inactive: 38.6%. For `Nc1ccn([C@@H]2O[C@H](CO)[C@@H](O)[C@@H]2O)c(=O)n1` [Cytarabine], the “percentage of GFP+” value was inactive: 26.8%. In the case of `CCCCCCCCCCCCCCCCO` [1-Hexadecanol], the “percentage of GFP+” value is reported as inactive: 56%. For `Clc1ccccc1C(c1ccccc1)(c1ccccc1)n1ccnc1` [Clotrimazole], the “percentage of GFP+” value was inactive: 48.2%. With `Cc1cc(C)cc(NC(=O)Cc2ccc(OC(C)(C)C(=O)O)cc2)c1` [Efaproxiral Sodium] the “percentage of GFP+” value was inactive: 44.3%. In the case of `CCCCOc1ccc(CC(=O)NO)cc1` [Bufexamac], the “percentage of GFP+” value is reported as inactive: 45.8%. In the case of `CCCCc1nc2cc(/C=C/C(=O)NO)ccc2n1CCN(CC)CC` [Pracinostat], the “percentage of GFP+” value is reported as inactive: 24.8%. For `COc1ccccc1Oc1c(NS(=O)(=O)c2ccc(C(C)(C)C)cc2)nc(-c2ncccn2)nc1OCCO` [Bosentan], the “percentage of GFP+” value was inactive: 54%. For `CC(C)C1CCC(C(=O)N[C@H](Cc2ccccc2)C(=O)O)CC1` (stereo partly drawn) [Nateglinide], the “percentage of GFP+” value was inactive: 46.5%. `CC1(C)O[C@@H]2[C@@H](CO[C@@]3(COS(N)(=O)=O)OC(C)(C)O[C@@H]23)O1` [Topiramate] was tested, and the “percentage of GFP+” value was inactive: 42.7%. `N#Cc1c(Oc2ccc(F)c(NC(=O)Cc3cccc(C(F)(F)F)c3)c2)ccc2nc(NC(=O)C3CC3)sc12` was tested, and the “percentage of GFP+” value was inactive: 29.2%. For `CN1CCN(C(=O)c2cc3cc(Cl)ccc3[nH]2)CC1`, the “percentage of GFP+” value was inactive: 43.6%. `Cc1ccc2c(c1)C(=O)[C@]1(O)CCN(c3ccccc3)C1=N2` [(S)-blebbistatin] was tested, and the “percentage of GFP+” value was inactive: 35.5%. For `O=C(Nc1cccc(Cl)c1)c1ccccn1`, the “percentage of GFP+” value was inactive: 50.9%. For `O=C1NC(=O)/C(=C/c2ccc3nccc(-c4ccncc4)c3c2)S1`, the “percentage of GFP+” value was inactive: 33.7%. With `NC(=O)c1ncn([C@@H]2O[C@H](CO)[C@@H](O)[C@@H]2O)c1O` [Mizoribine] the “percentage of GFP+” value was inactive: 36.6%. In the case of `CS(=O)(=O)N1CCc2c(-c3cnc(N)nc3)nc(N3CCOCC3)nc21`, the “percentage of GFP+” value is reported as inactive: 43.5%. In the case of `Cc1ncc([N+](=O)[O-])n1CC(C)O` (stereo not drawn) [Secnidazole], the “percentage of GFP+” value is reported as inactive: 39.1%. In the case of `C[C@@H]1O[C@@H](O[C@H]2[C@H](Oc3cc(O)c(C(=O)CCc4ccc(O)cc4)c(O)c3)O[C@H](CO)[C@@H](O)[C@@H]2O)[C@H](O)[C@H](O)[C@H]1O` [Naringin Dihydrochalcone], the “percentage of GFP+” value is reported as inactive: 41.7%. For `C[C@@H](CN1CC(=O)NC(=O)C1)N1CC(=O)NC(=O)C1` [Dexrazoxane], the “percentage of GFP+” value was inactive: 37.4%. In the case of `O=C1c2c(O)cccc2[C@H]([C@@H]2O[C@H](CO)[C@@H](O)[C@H](O)[C@H]2O)c2cc(CO)cc(O)c21` [Aloin], the “percentage of GFP+” value is reported as inactive: 20.8%. For `COc1ccc(-c2ccc3c(N4CCOC[C@@H]4C)nc(N4CCOC[C@@H]4C)nc3n2)cc1CO`, the “percentage of GFP+” value was inactive: 40.4%. In the case of `c1cnc2cc3c(cc2n1)C1CNCC3C1` [Varenicline Tartrate], the “percentage of GFP+” value is reported as inactive: 49.1%. For `CC1CNc2c(cccc2S(=O)(=O)N[C@@H](CCCN=C(N)N)C(=O)N2CC[C@@H](C)C[C@@H]2C(=O)O)C1` (stereo partly drawn) [Argatroban], the “percentage of GFP+” value was inactive: 38.9%. With `C[C@]12CC[C@H](O)CC1=CCC1C2CC[C@]2(C)C(n3cnc4ccccc43)=CCC12` (stereo partly drawn) [Galeterone] the “percentage of GFP+” value was inactive: 38.1%. For `C[C@H](CCC(=O)O)[C@H]1CC[C@H]2[C@@H]3C[C@H](O)[C@@H]4C[C@H](O)CC[C@]4(C)[C@H]3CC[C@]12C` [Hyodeoxycholic acid (HDCA)], the “percentage of GFP+” value was inactive: 46.4%. For `CCN1CC(CCN2CCOCC2)C(c2ccccc2)(c2ccccc2)C1=O` (stereo not drawn) [Doxapram], the “percentage of GFP+” value was inactive: 44%. In the case of `N=C(N)NS(=O)(=O)c1ccc(N)cc1` [Sulfaguanidine], the “percentage of GFP+” value is reported as inactive: 50.6%. In the case of `CNC(=O)c1cc(Oc2ccc(NC(=O)Nc3cc(C(C)(C)C)nn3-c3ccc4ncccc4c3)c(F)c2)ccn1` [Rebastinib], the “percentage of GFP+” value is reported as inactive: 39.9%. For `CC1=CC(=O)c2ccccc2C1=O` [Menadione], the “percentage of GFP+” value was inactive: 46.8%. With `CCS(=O)(=O)c1cccc(-c2cc(C(=O)NC3CCN(C)CC3)c(C)c3[nH]c4ncc(C)cc4c23)c1` the “percentage of GFP+” value was inactive: 42.7%. With `COc1cc(N2CCC(N3CCN(C)CC3)CC2)ccc1Nc1ncc(Cl)c(Nc2ccccc2S(=O)(=O)C(C)C)n1` the “percentage of GFP+” value was inactive: 45.9%. `O=C(c1ccccc1)c1ccc2n1CCC2C(=O)O` (stereo not drawn) [Ketorolac] was tested, and the “percentage of GFP+” value was inactive: 38.6%. `O=C(NCCS(=O)(=O)c1ccc(C(F)(F)F)cn1)c1ccc(Cl)cc1` was tested, and the “percentage of GFP+” value was inactive: 49.6%. `CNC1CCCN(c2c(F)cc3c(=O)c(C(=O)O)cn(C4CC4)c3c2OC)C1` (stereo not drawn) [Balofloxacin] was tested, and the “percentage of GFP+” value was inactive: 49.5%. With `C/C(O)=C(\C#N)C(=O)Nc1ccc(C(F)(F)F)cc1` [Teriflunomide] the “percentage of GFP+” value was inactive: 47%. With `CCOc1cc2ncc(C#N)c(Nc3ccc(F)c(Cl)c3)c2cc1NC(=O)/C=C/CN(C)C` [Pelitinib] the “percentage of GFP+” value was inactive: 39.4%. For `Cc1cc(Cn2cnc3c2C[C@@H](C(=O)O)N(C(=O)C(c2ccccc2)c2ccccc2)C3)ccc1N(C)C`, the “percentage of GFP+” value was inactive: 40.8%. In the case of `NS(=O)(=O)C#Cc1ccccc1` [Pifithrin], the “percentage of GFP+” value is reported as inactive: 23.9%. With `CN1CCc2c(c3ccccc3n2Cc2ccc(C(=O)NO)cc2)C1` [Tubastatin A HCl] the “percentage of GFP+” value was inactive: 53.9% and inactive: 45%. For `C[C@@H]1CCN(C(=O)CC#N)C[C@@H]1N(C)c1ncnc2[nH]ccc12` [Tofacitinib], the “percentage of GFP+” value was inactive: 49.8% and inactive: 57.7%. With `CNC(=O)c1ccc(C)c(-n2c(C)cc(OCc3ccc(F)cc3F)c(Br)c2=O)c1` the “percentage of GFP+” value was inactive: 54.9%. With `Oc1nc(-c2ccc(C(F)(F)F)cc2)nc2c1CSCC2` the “percentage of GFP+” value was inactive: 50.6%. In the case of `Cc1coc2c1C(=O)C(=O)c1c-2ccc2c1CCCC2(C)C` [Tanshinone IIA], the “percentage of GFP+” value is reported as inactive: 33.7%. For `NC1(c2ccc(-c3nc4ccn5c(O)nnc5c4cc3-c3ccccc3)cc2)CCC1`, the “percentage of GFP+” value was inactive: 38.8%. `CCN1CCN(Cc2ccc(-c3cc4c(N[C@H](C)c5ccccc5)ncnc4[nH]3)cc2)CC1` was tested, and the “percentage of GFP+” value was inactive: 45.5%. In the case of `COc1cc(Br)c(Nc2nc(-c3c(C)nc4ncccn34)cs2)c(Br)c1`, the “percentage of GFP+” value is reported as inactive: 26.7%. For `CN1CCN2c3ncccc3Cc3ccccc3C2C1` (stereo not drawn) [Mirtazapine], the “percentage of GFP+” value was inactive: 50.3%. With `OC[C@H]1O[C@@H](n2cnc3c(O)ncnc32)[C@H](O)[C@@H]1O` [Inosine] the “percentage of GFP+” value was inactive: 47.7%. `CC1=NC(N)=C(C(=O)OC2CN(C(c3ccccc3)c3ccccc3)C2)C(c2cccc([N+](=O)[O-])c2)/C1=C(/O)OC(C)C` (stereo not drawn) [Azelnidipine] was tested, and the “percentage of GFP+” value was inactive: 42.5%. With `C=CCc1ccc(O)c(-c2cc(CC=C)ccc2O)c1` [Magnolol] the “percentage of GFP+” value was inactive: 44.7%. For `CC1=NN(c2ccc(C(=O)O)cc2)C(=O)/C1=C\c1ccc(-c2cc(C)c(C)cc2[N+](=O)[O-])o1`, the “percentage of GFP+” value was inactive: 40.6%. `CC(C)c1cc(-c2nnc(O)n2-c2ccc3c(ccn3C)c2)c(O)cc1O` [Ganetespib] was tested, and the “percentage of GFP+” value was active: 4.48%. `C#CCC(Cc1cnc2nc(N)nc(N)c2n1)c1ccc(C(=O)N[C@@H](CCC(=O)O)C(=O)O)cc1` (stereo partly drawn) [Pralatrexate] was tested, and the “percentage of GFP+” value was inactive: 40.7%. With `CC(=O)OCC(=O)[C@@]12OC(C)(C)O[C@@H]1C[C@H]1[C@@H]3C[C@H](F)C4=CC(=O)C=C[C@]4(C)[C@@]3(F)[C@@H](O)C[C@@]12C` [Fluocinonide] the “percentage of GFP+” value was inactive: 33.9%. With `CO/N=C(\C(=O)N[C@@H]1C(=O)N2C(C(=O)OCOC(=O)C(C)(C)C)=C(/C=C\c3scnc3C)CS[C@H]12)c1csc(N)n1` [Cefditoren Pivoxil] the “percentage of GFP+” value was inactive: 58.9%. In the case of `CCCC(=O)Nc1cccc(NC(=O)c2ccccc2Br)c1`, the “percentage of GFP+” value is reported as inactive: 51.2%. `COc1cc2ncnc(Nc3ccc(O)c(Br)c3)c2cc1OC` was tested, and the “percentage of GFP+” value was inactive: 50.3%. In the case of `CNC(=O)[C@H](Cc1ccccc1)NC(=O)[C@H](CC(C)C)[C@H](CSc1cccs1)C(=O)NO` [Batimastat], the “percentage of GFP+” value is reported as inactive: 41.9%. `COc1ccc(S(=O)(=O)N(C(C)=O)c2ccccc2/C=C/c2cc[n+]([O-])cc2)cc1` was tested, and the “percentage of GFP+” value was inactive: 31.6%. `Cn1cncc1[C@@](N)(c1ccc(Cl)cc1)c1ccc2c(c1)c(-c1cccc(Cl)c1)cc(=O)n2C` [Tipifarnib] was tested, and the “percentage of GFP+” value was inactive: 47.1%. With `COc1ccc2ccc(=O)oc2c1CC=C(C)C` [Osthol] the “percentage of GFP+” value was inactive: 40.1%. `Cc1cc(C(C)(C)C)cc(C)c1CC1=NCCN1` [Xylometazoline] was tested, and the “percentage of GFP+” value was inactive: 40.3%. `Cc1cc(F)c(Nc2ncnc3cc(OCc4ccccc4)ccc23)cc1O` was tested, and the “percentage of GFP+” value was inactive: 37.9%. For `NS(=O)(=O)c1ccc(NC(=O)Nc2ccc(F)cc2)cc1`, the “percentage of GFP+” value was inactive: 43%. For `Cn1cc(-c2ccc3nnc(C(F)(F)c4ccc5ncccc5c4)n3n2)cn1`, the “percentage of GFP+” value was inactive: 45.4%. For `Cc1cc(Nc2cc(N3CCN(C)CC3)nc(/C=C/c3ccccc3)n2)n[nH]1`, the “percentage of GFP+” value was inactive: 40.7%. With `COc1cc(NS(=O)(=O)c2ccc(N)cc2)nc(OC)n1` [Sulfadimethoxine] the “percentage of GFP+” value was inactive: 42.5%. With `COc1ccnc2[nH]cc(C(=O)C(=O)N3CCN(C(=O)c4ccccc4)C[C@H]3C)c12` the “percentage of GFP+” value was inactive: 47.8%. For `O=S(=O)(c1ccccc1)N(CC(F)(F)F)c1ccc(C(O)(C(F)(F)F)C(F)(F)F)cc1`, the “percentage of GFP+” value was inactive: 47%.
